# Measured values: the supplement of paper PMC11417369
# ± gives the standard deviation of the averaged measurements. The list shows a part of the results.
# Test system: PfAP2-LT AP2 domain (GST-tagged)
# Assay: gcPBM binding intensity (ln(normalized median fluorescence intensity)); higher = stronger DNA binding
# Outline: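 GST-tagged P. falciparum DNA-binding domains, expressed in E. coli (about 25 μg on average), were applied for 1 h to an Agilent 4 × 180k array of primer-extended double-stranded 36-bp intergenic genomic probes plus negative controls. The binding buffer was 1× PBS with 1% milk, 0.2 mg/ml BSA, 0.5% salmon testes DNA and 0.03% Triton X-100. Bound protein was detected with Alexa488 anti-GST antibody and scanned at 488 nm. Binding intensity is the highest Masliner-normalised natural-log median intensity across replicate spots of either probe orientation.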
row,Sequence,gcPBM binding intensity (ln)
1,ATATATTATAGGTACACACACATATAAGGGATTATA [CACACA_site6154],9.35 ± 0.42
2,ATATATATATATATTGTGCACAAAAAAAAATAAGCA,9.09 ± 0.4
3,ATATACATATATATTGCATGCAGAGAGTATTTATAA [TGCATGCA_site646],8.91 ± 0.35
4,GGAAAGACAGTTCACAGTACCCAGGAAATCTACGGA [XGTACX_site1996],9.04 ± 0.51
5,CTTTGTAGTATATTAACACACAACTGTTTATAATAT [CACACA_site6038],8.9 ± 0.43
6,TATATATATATTTAGTGTACTTAAAAAAAATAATAA [XGTACX_site5454],8.37 ± 0.45
7,ATAATAATAAAATATATATACAAAGGTGAAATTATA [TGCATGCA_negctrl_site197],8.8 ± 0.45
8,TATTTTTTTTTCCATTGTACATTTTTGATATTTTTC [XGTACX_site744],8.91 ± 0.52
9,TTATTAAATATGTACACACGTACATTTTATAAATGA [CACACA_site2387],8.57 ± 0.35
10,TATAAATACTAAAAAAGTACAAAATTTCATAAAAAA [XGTACX_site2709],8.55 ± 0.58
11,ATTTTATATAATACATGTACAAAAGTTTAAATTTAT [XGTACX_site6196],8.62 ± 0.42
12,GGAAAATCTAATCATTTAATATTTATTTATCTAATT [GTGCAC_negctrl_site553],8.35 ± 0.52
13,TTATAATATAGCAATTATTAAATAGGATCAAATGAA [CACACA_negctrl_site632],8.41 ± 0.38
14,TTCTTTATTTATCATTATAAGAAGAGTTGATTTGTT [XGTACX_negctrl_site555],8.61 ± 0.47
15,AACAAATTTATCCAAAGTACAAAATATCATTTCTTA [XGTACX_site4543],8.52 ± 0.46
16,AACAACATGTAGACGCGTACCAACATCAGATCCTAT [XGTACX_site4071],9.37 ± 0.38
17,ATTATAATTATATATGCATGTAGCATTTTCTATTTT [TGCATGCA_site66],8.86 ± 0.4
18,ATATAAGAAATAAAGAAAAATGTGTTTTTTTTTTTT [XGTACX_negctrl_site396],8.38 ± 0.59
19,TTTATCTTATTTTTATGTACTTATTTTATAAAAAAA [XGTACX_site7730],8.23 ± 0.52
20,AGAGCTGTTTTTTATGCATGTAGTTTAGAAAATACA [TGCATGCA_site257],8.51 ± 0.39
21,AAACAAATATTTATCACAATGTCATTTTGTTAACAT [GTGCAC_negctrl_site171],8.8 ± 0.35
22,TTTTTCCTAACATATTATATACTTGAATATTTATTA [CACACA_negctrl_site156],8.5 ± 0.55

row,Sequence,gcPBM binding intensity (ln)
1,TATTTGTAAATTATTTGGGTGTGTAGGGGATATTCT [XGTACX_negctrl_site204],9.29 ± 0.42
2,TTTTTTTTTTTATTTGCATGCGGTGTTCATAATATT [TGCATGCA_site199],9 ± 0.37
3,CGTTCATATTATTATAGTACATATTATTATAGTTTT [XGTACX_site1550],8.76 ± 0.4
4,AGAAGAAAAGTAAAAAGTACATTATTCATGGCCTAT [XGTACX_site5601],8.7 ± 0.43
5,TTGGTGGATAAATTTACACACAATAACTTTCGTTCA [CACACA_site6358],8.94 ± 0.45
6,AAGAAAATAAATAATACACACAAGGATTTGTAAATA [CACACA_site690],9.04 ± 0.45
7,CTTTTTTTTTAAAAATGTACACATTTTTGAAAATAC [XGTACX_site3127],8.33 ± 0.47
8,TTTTTCTTTTTTTTTTCCTTTATCACATAAGAAAAA [CACACA_negctrl_site192],8.18 ± 0.45
9,AAAATGAAGAAGTGCACACATATATATATTTATATA [CACACA_site507],9.21 ± 0.39
10,AAGATATGAGGGAATACACACATATATATATATATA [CACACA_site1581],9.97 ± 0.13
11,TTAATACACCATAAAAGTACATAATATGATATTTAA [XGTACX_site8561],8.63 ± 0.42
12,ATATGTTTGATTTTTTTTTTTTTTTTTTTTATGTGT [CACACA_negctrl_site1001],8.88 ± 0.63
13,AAAAAAAAAATTAAAAGTACAGAAAATAAATAAATA [XGTACX_site7470],8.67 ± 0.48
14,GACATATTATTCATGTGTACATATTATATGTATATA [XGTACX_site3442],8.91 ± 0.4
15,AAAAAAGAAGACATCTAAGTAATAGTAACAATGTAT [CACACA_negctrl_site1660],8.93 ± 0.51
16,AAGAATTTAGAAGGCATGCACTTAAACATGCATATA,8.79 ± 0.5
17,TATAAATATACACCCACACACATATATAAATAAATA [CACACA_site7717],9.65 ± 0.16
18,TATATGGGATATATGTGTACATATAAAATATGTATC [XGTACX_site3365],8.87 ± 0.43
19,TTTTTTTTTTTTTTTACACACATTTGAATAACTTTA [CACACA_site6810],8.73 ± 0.48
20,AAAAGAATTAAAAAATGTACATATAATATATATATA [XGTACX_site6721],8.86 ± 0.38
21,CTTAATATGAATAAAACACACATATATAATTTGTAA [CACACA_site5120],8.7 ± 0.43
22,TTTTCCCTTACAGAAAAAAAAAAATTCCTAACCCCG [CACACA_negctrl_site650],8.46 ± 0.12

row,Sequence,gcPBM binding intensity (ln)
1,ATATATTTTAGGAGAGTGCATTTAATATTATTTAAT [GTGCAC_site9444],8.44 ± 0.4
2,TTATATATTTATAATCGTACAATAATTAACGTAAAA [XGTACX_site3206],8.42 ± 0.4
3,CATATAATAAATAATACACACATATTGTAAATATAT [CACACA_site5734],9.07 ± 0.46
4,GTAATGAACAAACACAAAAAAAAAAAAAAAATAATA [TGCATGCA_negctrl_site344],8.74 ± 0.45
5,TAAAATAAAATAAAATGTACTTTCCTTTTGATAATA [XGTACX_site6288],8.22 ± 0.54
6,AATTGAGTATCGTGAGTGCAAAACGTGGTTCAAAGA,8.99 ± 0.51
7,ATTTGAAAAAATACTACACACCATATTGTTAATTTT [CACACA_site3829],8.79 ± 0.38
8,AAGATTCATATAAAAAGTACAAAAAGAAAAAAATAA [XGTACX_site6033],8.67 ± 0.47
9,TGATAAATTTTCACATGTACATATATAGAATAACCT [XGTACX_site2860],8.79 ± 0.26
10,ATTAAATCATATGAATGTACGGATATATATATTTCC [XGTACX_site8650],8.86 ± 0.42
11,ATATATATGTATATATGTACATATATGTATATATAT [XGTACX_site4772],9.12 ± 0.57
12,ATAATTTTATATAAATGTACATACATTTTTATTATA [XGTACX_site7368],8.61 ± 0.4
13,ATAATATATGCAAAAACATGCACATAATATGTAAAA [TGCATGCA_site742],8.93 ± 0.44
14,TATACACATAGACACACACACATACACGCACATACA [CACACA_site6908],9.99 ± 0.17
15,TAATAAGTATCAAAATGTACATGACAAAAATAATTT [XGTACX_site8961],8.89 ± 0.38
16,TCTAAAAAAATTATATCACACATTATAAAGCATATT [CACACA_site4885],8.48 ± 0.31
17,ATTTGTATATAATATATATAATTTTTTTTTTTTGTT [XGTACX_negctrl_site425],8.45 ± 0.56
18,ATAACTATATACATCTGTACATAATACATAGATAAA [XGTACX_site2795],8.86 ± 0.42
19,ATATCTTCACTTATATGTACTTACATTTTTTTTTTT [XGTACX_site8696],8.96 ± 0.5
20,CAAATAAAAAAAGTAGCACACATGAATAAAATATAT [CACACA_site3130],9.16 ± 0.42
21,ATACATACATATGTATGTACGTATGTATGTATGTAT [XGTACX_site3853],9.16 ± 0.32
22,TTATAAAAAGAACAATTAAAAAAAAATAAAATAAAA [XGTACX_negctrl_site398],8.4 ± 0.63

row,Sequence,gcPBM binding intensity (ln)
1,AGAATAGTGGAAAACACACACGTTTGAGATATGGAC [CACACA_site4782],9.41 ± 0.45
2,CACCCACCCACATACACACACATACACATATATATA [CACACA_site1722],10 ± 0.22
3,GCACGTGTGATTAGATGTACATAACATGTATATGTC [XGTACX_site4632],9.09 ± 0.49
4,TTTTTATGTTCTATATATATATATATATATATATAT [GTGCAC_negctrl_site306],9.39 ± 0.26
5,CATAATATATATTGAGCATGCTACTATTGTTAGAAA [TGCATGCA_site740],8.89 ± 0.45
6,AAAAAAAAAAACTACACACATACAAATATTTATATA [CACACA_site2574],9.04 ± 0.41
7,ACATATAAGATATATACACACATATAAATACATTAA [CACACA_site7763],9.13 ± 0.39
8,AAAAAAAAAAAAAAAACACACATACACCCAGACACA [CACACA_site5807],9.71 ± 0.18
9,ATACATATATAAATATGTACACACATATGTATGATC [XGTACX_site8219],9.26 ± 0.33
10,GGAAACCCTCCCAAATGTACTTTTATAAAAAAATAC [XGTACX_site5502],8.66 ± 0.18
11,TATACTCAGAAACACACACACACACCCAAAAAAAAA [CACACA_site4434],10.1 ± 0.35
12,ATATAAGTACATATAACACACATATATTATAAGTAT [CACACA_site2647],9.16 ± 0.35
13,TTTGCCATAAAACACACACACATGTAAACCCCCTTT [CACACA_site1646],9.76 ± 0.2
14,TTTTTATTTTTTGTCTGTACATATATAAATTTATTA [XGTACX_site1525],8.73 ± 0.49
15,GATATAAGGGTATGAAGTACATAAATATTTTATGCT [XGTACX_site1886],8.86 ± 0.43
16,TATGCACGCGAACACACACACACAACTAAAAAATAA [CACACA_site7251],9.79 ± 0.37
17,ATGTAAGTATAAAATGTGCGCATTGGGAATGAGGAC,9.6 ± 0.38
18,ATGAATTAACCTAATCGTACAATAAATATTATTATA [XGTACX_site596],8.59 ± 0.5
19,ATATATATATATGTATGTATATATATATGTTTGATT [XGTACX_negctrl_site62],9.31 ± 0.37
20,ACTATTTAAAAATATGGTACACGAAATTCAAGAGAA [XGTACX_site5903],8.73 ± 0.36
21,AAGTTTTATATTTATTAAATTTTTTTTTTTCCTTTT [XGTACX_negctrl_site184],8.31 ± 0.58
22,ATATGTTTAAAAATATGTACGTATTATATATTCTAT [XGTACX_site1358],8.81 ± 0.45
